Laboratory results from publication PMC7819943, “Rice protein-binding microarrays: a tool to detect cis-acting elements near promoter regions in rice”.
The other results are listed elsewhere or left out.

These sequences were tested against T1, OsWOX13 (Oryza sativa, UniProt Q5QMM3 1-267) (assay: protein-binding microarray (RPBM); PBS, 2% BSA, 51.3 ng/ul salmon testes DNA, 50 uM zinc acetate, 200 nM TF, 25 C, 1 h; high values mean tight binding). Conditions: protein: recombinant; tags: N-terminal polyhistidine and DsRed monomer fusion (pET32a); label: CyDye5-dUTP incorporated in the synthesized complementary strand; 3' TTTTT single-stranded linker to array surface; dsDNA, one strand shown.
T1 sequence: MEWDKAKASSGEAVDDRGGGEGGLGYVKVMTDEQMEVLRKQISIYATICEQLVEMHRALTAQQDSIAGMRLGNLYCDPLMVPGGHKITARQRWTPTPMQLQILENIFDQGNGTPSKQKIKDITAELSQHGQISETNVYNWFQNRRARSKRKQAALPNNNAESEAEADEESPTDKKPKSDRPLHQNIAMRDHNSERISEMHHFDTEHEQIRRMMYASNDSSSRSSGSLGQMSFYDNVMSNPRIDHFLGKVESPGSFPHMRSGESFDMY
Method in brief: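 A custom Agilent array was converted to double-stranded form by primer extension with Cy5-dUTP and blocked with 2% BSA. Protein at 200 nM in PBS with 2% BSA, salmon testes DNA and 50 µM zinc acetate was applied for 1 h at 25 °C, followed by washing. The proteins were polyhistidine–DsRed N-terminal fusions of transcription factors, expressed in E. coli BL21-CodonPlus and Ni–NTA-purified. The binding signal is per-feature fluorescence intensity (arbitrary units) from an Axon 4000B scanner.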

Sequence	binding signal
TATGCAATATATATAATTAATATATGTTGATACATGTGCACGGAGTCACCTAGTGCAG	4070 fluorescence intensity (a.u.)
CCAAATCAAATTGCCACGTCAATGCCACATCGATGCCACACGGAGTCACCTAGTGCAG	5770 fluorescence intensity (a.u.)
AATAATTAGCCATCGTAAAGCAGTATCCATGCTAAGTCTACGGAGTCACCTAGTGCAG	14000 fluorescence intensity (a.u.)
TAGGATGATTGTGAAGATGATGAAGCCGGTGGTGGCGCTGCGGAGTCACCTAGTGCAG	23300 fluorescence intensity (a.u.)
TTTACAATGTTAGATTTGATGGGCAGTTGAGGTAGCCACGCGGAGTCACCTAGTGCAG	4970 fluorescence intensity (a.u.)
TGCATTATGCACATGATTGAGGGAAGAAATGTGGATCTTTCGGAGTCACCTAGTGCAG	16500 fluorescence intensity (a.u.)
TAGATAGATTTCCATTATCGAAAAGAAAAGGAATTGTCTGCGGAGTCACCTAGTGCAG	4190 fluorescence intensity (a.u.)
TTAAATTGGTTCAATTGATGTCGACGTTACTATATTTTACCGGAGTCACCTAGTGCAG	41200 fluorescence intensity (a.u.)
TTCCTCTTAATCACATATACAAAGTGCTTTGATTAAAGAACGGAGTCACCTAGTGCAG	4660 fluorescence intensity (a.u.)
TTAGATTGGCTATAGATGAATTGGAGCTAATAATTGGCTACGGAGTCACCTAGTGCAG	43500 fluorescence intensity (a.u.)
AAAATATCCCTGATTTGTATGAGCGGCGGTGGTGCAGTGGCGGAGTCACCTAGTGCAG	4280 fluorescence intensity (a.u.)
ACGATAATTCTCCAATCCTAATACAACTACAGTATGATATCGGAGTCACCTAGTGCAG	3560 fluorescence intensity (a.u.)
AACTAATTGTTTCTTCAGACTTCTTCAGAGCATTCTCCAGCGGAGTCACCTAGTGCAG	36800 fluorescence intensity (a.u.)
CGAATTGATGACCGAATTTCTCGGTCTCGGTCTTTTCAGTCGGAGTCACCTAGTGCAG	14700 fluorescence intensity (a.u.)
ATCTTGACAAATATTATCTCAATAACAGGTCACTGAGATGCGGAGTCACCTAGTGCAG	4840 fluorescence intensity (a.u.)
GATCAATCACAGAGCAAAGCAGCCATTCCTCACGTCACGTCGGAGTCACCTAGTGCAG	19500 fluorescence intensity (a.u.)
AACAGCTCAATTAATTAATCGCCCACACCGAAGCGCGCACCGGAGTCACCTAGTGCAG	18600 fluorescence intensity (a.u.)
TATCATCTATATCTCAAATTGACACATCCCCTCTAGGATCCGGAGTCACCTAGTGCAG	5880 fluorescence intensity (a.u.)
TTTGACAGAAACCCAACATAACCATGGAAGTTCTACTAACCGGAGTCACCTAGTGCAG	7120 fluorescence intensity (a.u.)
GTTCGAGTAATTTACGGTCCATGACAGGCAGGCAAAGTTACGGAGTCACCTAGTGCAG	7520 fluorescence intensity (a.u.)
CATCATCTCTAATTTTAATCAAAATATAAACTTTGCAGTGCGGAGTCACCTAGTGCAG	9140 fluorescence intensity (a.u.)

Sequence	binding signal
ATATGTTAGATAGATATATAGATAGATAGATACACTATCTCGGAGTCACCTAGTGCAG	8740 fluorescence intensity (a.u.)
CAAATTAACAACCTGTCATGCAAATGATCACCAAATCCGTCGGAGTCACCTAGTGCAG	23000 fluorescence intensity (a.u.)
CTAGTGATTAGCGGCTGCATGCAAGCATTTAGTTGGATGTCGGAGTCACCTAGTGCAG	22000 fluorescence intensity (a.u.)
ACTATGGTTTAAATTGACGTCTATGAATACCACACATACGCGGAGTCACCTAGTGCAG	12000 fluorescence intensity (a.u.)
CAAATAATTTAGGTTAACGACTCCAGTCAAAGCAAGTGAACGGAGTCACCTAGTGCAG	16000 fluorescence intensity (a.u.)
TTTAATTGCAAGCTTTGTATATGCCTACTTTACTTGCCATCGGAGTCACCTAGTGCAG	29900 fluorescence intensity (a.u.)
TCCTTCCTCTAATCACCCATCCATTCGCCATCATTGCTTCCGGAGTCACCTAGTGCAG	3340 fluorescence intensity (a.u.)
TGCACTTGATTAGTACAGGAGTTAACTGCATCTACGACTCCGGAGTCACCTAGTGCAG	6960 fluorescence intensity (a.u.)
TACACAGATTGCGTGTAAATTGCAAGACAAATCTTTTAAGCGGAGTCACCTAGTGCAG	7580 fluorescence intensity (a.u.)
GAGAATCATAAAATTGACATATGTTAGTTGTAATGGAAATCGGAGTCACCTAGTGCAG	8450 fluorescence intensity (a.u.)
ATCGATTGAAATTTCGATGGTTTCATTCGGAATTTCGTCACGGAGTCACCTAGTGCAG	14600 fluorescence intensity (a.u.)
ATTAACATAATTAATTCCAATCTATCCATCCCGTCGTCAACGGAGTCACCTAGTGCAG	42200 fluorescence intensity (a.u.)
CAATGGACTGGTTATTAATTGTTACTACTACTATTGAACTCGGAGTCACCTAGTGCAG	4640 fluorescence intensity (a.u.)
GTGATATAAAATGCCTGTCAGTTAACTACATAAGTAACTTCGGAGTCACCTAGTGCAG	6010 fluorescence intensity (a.u.)
ACATTGATAGCATTTGTCAAACCTCATTCATAGATACCGTCGGAGTCACCTAGTGCAG	18000 fluorescence intensity (a.u.)
TATTAACGTTACAATAAATTGAAATATATATTACTAATGTCGGAGTCACCTAGTGCAG	17500 fluorescence intensity (a.u.)
TATATATGAGCTATTAGATTGGCTATGGATGAATTGGAGCCGGAGTCACCTAGTGCAG	4900 fluorescence intensity (a.u.)
ATCAAAATAGAGTTAGTCATCAATTAGCAAATATCGCTCGCGGAGTCACCTAGTGCAG	6570 fluorescence intensity (a.u.)
ATGTGTCCAATCATAACCCGATTTCGTTGTCAATCTGTGCCGGAGTCACCTAGTGCAG	9490 fluorescence intensity (a.u.)
GAGCAGATAATAATCAATCGCACCAACAGCGCTAGCTAGCCGGAGTCACCTAGTGCAG	4620 fluorescence intensity (a.u.)
GCATATCAGCCCATTGATTTGCCTATTCTATGAGTAGAAACGGAGTCACCTAGTGCAG	4050 fluorescence intensity (a.u.)
